Data on two molecules can be found in article PMC12337393.

Amino acid sequences for entries named in this document (tags omitted). A change or cut given only in a name is not applied to a line headed by its entry. Chains listed by the source or under a name are the forms on record and can include a tag or linker. Residues count along the entry.
UniProt Q96GD4: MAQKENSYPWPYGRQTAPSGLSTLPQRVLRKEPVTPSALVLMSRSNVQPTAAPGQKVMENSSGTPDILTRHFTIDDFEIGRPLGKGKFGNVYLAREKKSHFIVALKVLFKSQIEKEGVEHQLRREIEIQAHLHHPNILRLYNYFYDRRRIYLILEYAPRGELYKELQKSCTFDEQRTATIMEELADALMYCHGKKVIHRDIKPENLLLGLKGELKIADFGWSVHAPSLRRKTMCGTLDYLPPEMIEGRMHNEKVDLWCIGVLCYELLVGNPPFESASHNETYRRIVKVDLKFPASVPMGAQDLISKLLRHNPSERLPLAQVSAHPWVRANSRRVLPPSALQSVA
Flag-tagged AURKB truncation 1-251aa: residues 1-251 of Q96GD4
Flag-tagged AURKB truncation 1-76aa: residues 1-76 of Q96GD4
Flag-tagged AURKB truncation 252-344aa (C-terminal domain): residues 252-344 of Q96GD4

The target in experiment [1] is Aurora kinase B (AURKB), endogenous (human (endogenous in HCT116, RKO and CRC tissue)) (UniProt Q96GD4). Briefly: co-IP; endogenous proteins; immunoprecipitation with an anti-AURKB antibody from HCT116 and RKO cells, western blot for AURKB and HNRNPM.
For experiment [2] the target is unchanged. Briefly: proximity ligation; formalin-fixed paraffin-embedded sections of CRC and paired normal tissues; rabbit anti-AURKB (1:400) and mouse anti-HNRNPM (1:100), anti-mouse PLUS and anti-rabbit MINUS probes.
Experiment [3] addresses Flag-tagged AURKB truncation 252-344aa (C-terminal domain) (UniProt Q96GD4). Briefly: co-IP; 293T cells co-transfected with Flag-tagged AURKB (full-length or truncations) and HA-tagged HNRNPs, lysed 48 h after transfection; immunoprecipitation with anti-Flag antibody or control rabbit IgG, western blot.
Experiment [4] concerns the target Flag-tagged AURKB, full-length (Aurora kinase B) (UniProt Q96GD4). The description is as above.
Experiment [5] addresses Flag-tagged AURKB truncation 1-76aa (UniProt Q96GD4). The experiment is described as above.
The target of experiment [6] is Flag-tagged AURKB truncation 1-251aa (UniProt Q96GD4). Described as above.

Results are given in words; binding and its absence hold for the method and conditions named. In cells and extracts the contact can be indirect. Some binding calls cover weakened binding; strength is not graded here. For part of these data: Tags and fused reporters may be left off the sequences shown.

B1: Heterogeneous nuclear ribonucleoprotein M (HNRNPM), endogenous (protein, UniProt P52272 1-730)
chain: MAAGVEAAAEVAATEIKMEEESGAPGVPSGNGAPGPKGEGERPAQNEKRKEKNIKRGGNRFEPYANPTKRYRAFITNIPFDVKWQSLKDLVKEKVGEVTYVELLMDAEGKSRGCAVVEFKMEESMKKAAEVLNKHSLSGRPLKVKEDPDGEHARRAMQKVMATTGGMGMGPGGPGMITIPPSILNNPNIPNEIIHALQAGRLGSTVFVANLDYKVGWKKLKEVFSMAGVVVRADILEDKDGKSRGIGTVTFEQSIEAVQAISMFNGQLLFDRPMHVKMDERALPKGDFFPPERPQQLPHGLGGIGMGLGPGGQPIDANHLNKGIGMGNIGPAGMGMEGIGFGINKMGGMEGPFGGGMENMGRFGSGMNMGRINEILSNALKRGEIIAKQGGGGGGGSVPGIERMGPGIDRLGGAGMERMGAGLGHGMDRVGSEIERMGLVMDRMGSVERMGSGIERMGPLGLDHMASSIERMGQTMERIGSGVERMGAGMGFGLERMAAPIDRVGQTIERMGSGVERMGPAIERMGLSMERMVPAGMGAGLERMGPVMDRMATGLERMGANNLERMGLERMGANSLERMGLERMGANSLERMGPAMGPALGAGIERMGLAMGGGGGASFDRAIEMERGNFGGSFAGSFGGAGGHAPGVARKACQIFVRNLPFDFTWKMLKDKFNECGHVLYADIKMENGKSKGCGVVKFESPEVAERACRMMNGMKLSGREIDVRIDRNA
B1: the binding entry in experiment [1] and in experiment [2] was “binds” in each case.

B2: HA-tagged HNRNPM (heterogeneous nuclear ribonucleoprotein M) (protein, UniProt P52272 1-730)
chain: MAAGVEAAAEVAATEIKMEEESGAPGVPSGNGAPGPKGEGERPAQNEKRKEKNIKRGGNRFEPYANPTKRYRAFITNIPFDVKWQSLKDLVKEKVGEVTYVELLMDAEGKSRGCAVVEFKMEESMKKAAEVLNKHSLSGRPLKVKEDPDGEHARRAMQKVMATTGGMGMGPGGPGMITIPPSILNNPNIPNEIIHALQAGRLGSTVFVANLDYKVGWKKLKEVFSMAGVVVRADILEDKDGKSRGIGTVTFEQSIEAVQAISMFNGQLLFDRPMHVKMDERALPKGDFFPPERPQQLPHGLGGIGMGLGPGGQPIDANHLNKGIGMGNIGPAGMGMEGIGFGINKMGGMEGPFGGGMENMGRFGSGMNMGRINEILSNALKRGEIIAKQGGGGGGGSVPGIERMGPGIDRLGGAGMERMGAGLGHGMDRVGSEIERMGLVMDRMGSVERMGSGIERMGPLGLDHMASSIERMGQTMERIGSGVERMGAGMGFGLERMAAPIDRVGQTIERMGSGVERMGPAIERMGLSMERMVPAGMGAGLERMGPVMDRMATGLERMGANNLERMGLERMGANSLERMGLERMGANSLERMGPAMGPALGAGIERMGLAMGGGGGASFDRAIEMERGNFGGSFAGSFGGAGGHAPGVARKACQIFVRNLPFDFTWKMLKDKFNECGHVLYADIKMENGKSKGCGVVKFESPEVAERACRMMNGMKLSGREIDVRIDRNA
B2: the binding result in experiment [3] was “binds”; in experiment [4] it was “binds”; in experiment [5], “no binding”; in experiment [6] it was “no binding”.
